Experimental data as given in the supplement of paper PMC12217912.
Some of the results follow. The full chains were built here from the parent and the listed change. Inactive controls read about 0.05.

B1: TEV protease; numbered along this chain (parent)
chain: MGESLFKGPRDYNPISSSICHLTNESDGHTTSLYGIGFGPFIITNKHLFRRNNGTLVVQSLHGVFKVKDTTTLQQHLVDGRDMIIIRMPKDFPPFPQKLKFREPQREERICLVTTNFQTKSMSSMVSDTSCTFPSGDGIFWKHWIQTKDGQCGSPLVSTRDGFIVGIHSASNFTNTNNYFTSVPKNFMELLTNQEAQQWVSGWRLNADSVLWGGHKVFMVKPEEPFQPVKEATQL

Variants of: B1
Experiment: raw area under fraction-flipped curve 0-4 h after induction (AUC4h, not background-subtracted), DNA-recorder readout of cleavage of the substrate (dimensionless); higher = more cleavage of the substrate by the protease variant
Conditions: temperature: 34 °C; time window: 0-4 h after rhamnose induction
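Further: Bxb1 expression induced with 0.2% (w/v) L-rhamnose at OD600 near 0.5, cultures sampled hourly, flipped fraction per protease–substrate barcode pair counted by paired-end Illumina sequencing.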

Row | Variant | area with substrate EALYFQS | area with substrate ECLYFQS | area with substrate EDLYFQS | area with substrate EELYFQS | area with substrate EFLYFQS | area with substrate EGLYFQS | area with substrate EILYFQS | area with substrate EKLYFQS | area with substrate ELLYFQS | area with substrate EQLYFQS | area with substrate ESLYFQS | area with substrate ETLYFQS | area with substrate EVLYFQS | area with substrate EWLYFQS | area with substrate EYLYFQS | area with substrate EHLYFQS | area with substrate EMLYFQS | area with substrate EPLYFQS | area with substrate ERLYFQS
1 | MGESLFKGPRDYNPISSSICHLTNESDGHTTSLYGIGFGPFIITNKHLFRRNNGTLVVQSLHGVFKVKDTTTLQQHLVDGRDMIIIRMPKDFPPFPQKLKFREPQREERICLVTTNFQTKSMSSMVSDTSCTFPSGDGIFWKHWIQTKDGQCGSPLVSTRDGFIVGIHSASNFTNTNNYFTSVPKNFMELLTNQEAQQWVSGWRLNADSVLWGGHKVFMVKPIEPFQPVKEATQL [E223I] | 0.0874 | 0.0822 | 0.111 | 0.0951 | 0.079 | 0.0712 | 0.0692 | 0.0835 | 0.0853 | 0.0944 | 0.0777 | 0.0998 | 0.09 | 0.0867 | 0.0858 | – | – | – | –
2 | MGESLFKGPRDYNPISSSICHLTNESDGHTTSLYGIGFGPFIITNKHLFRRNNGTLVVQSLHGVFKVKDTTTLQQHLVDGRDMIIIRMPKDFPPFPQKLKFREPQREERICLVTTNFQTKSMSSMVSDTSCTFPSGDGIFWKHWIQTKDGQCGSPLVSTRDGFIVGIHSASNFTNTNNYFTSVPKNFMELLTNQEAQQWVSGWRLNADSVLWGGHKVFMVKPKEPFQPVKEATQL [E223K] | 0.126 | 0.0913 | 0.121 | 0.105 | – | 0.102 | 0.0993 | 0.108 | 0.0812 | 0.124 | 0.0896 | – | 0.0839 | 0.094 | 0.103 | 0.103 | 0.094 | 0.101 | 0.0886
3 | MGESLFKGPRDYNPISSSICHLTNESDGHTTSLYGIGFGPFIITNKHLFRRNNGTLVVQSLHGVFKVKDTTTLQQHLVDGRDMIIIRMPKDFPPFPQKLKFREPQREERICLVTTNFQTKSMSSMVSDTSCTFPSGDGIFWKHWIQTKDGQCGSPLVSTRDGFIVGIHSASNFTNTNNYFTSVPKNFMELLTNQEAQQWVSGWRLNADSVLWGGHKVFMVKPEEPHQPVKEATQL [F226H] | 0.119 | 0.105 | 0.139 | 0.138 | – | – | 0.0976 | 0.0724 | – | 0.113 | 0.1 | 0.128 | 0.0904 | 0.107 | – | 0.132 | – | 0.0999 | –
4 | MGESLFKGPRDYNPISSSICHLTNESDGHTTSLYGIGFGPFIITNKHLFRRNNGTLVVQSLHGVFKVKDTTTLQQHLVDGRDMIIIRMPKDFPPFPQKLKFREPQREERICLVTTNFQTKSMSSMVSDTSCTFPSGDGIFWKHWIQTKDGQCGSPLVSTRDGFIVGIHSASNFTNTNNYFTSVPKNFMELLTNQEAQQWVSGWRLNADSVLWGGHKVFMVKPEEPMQPVKEATQL [F226M] | 0.111 | 0.117 | 0.151 | 0.147 | – | – | 0.0998 | 0.117 | 0.101 | 0.114 | 0.0936 | 0.143 | 0.0919 | 0.103 | – | 0.115 | – | 0.132 | 0.0884
5 | MGESLFKGPRDYNPISSSICHLTNESDGHTTSLYGIGFGPFIITNKHLFRRNNGTLVVQSLHGVFKVKDTTTLQQHLVDGRDMIIIRMPKDFPPFPQKLKFREPQREERICLVTTNFQTKSMSSMVSDTSCTFPSGDGIFWKHWIQTKDGQCGSPLVSTRDGFIVGIHSASNFTNTNNYFTSVPKNFMELLTNQEAQQWVSGWRLNADSVLWGGHKVFMVKPEEPNQPVKEATQL [F226N] | 0.118 | 0.127 | 0.14 | 0.141 | 0.129 | 0.0896 | 0.1 | 0.102 | 0.103 | 0.13 | 0.13 | – | 0.0991 | 0.0962 | 0.0208 | – | 0.116 | 0.133 | –
6 | MGESLFKGPRDYNPISSSICHLTNESDGHTTSLYGIGFGPFIITNKHLFRRNNGTLVVQSLHGVFKVKDTTTLQQHLVDGRDMIIIRMPKDFPPFPQKLKFREPQREERICLVTTNFQTKSMSSMVSDTSCTFPSGDGIFWKHWIQTKDGQCGSPLVSTRDGFIVGIHSASNFTNTNNYFTSVPKNFMELLTNQEAQQWVSGWRLNADSVLWGGHKVFMVKPEEPFKPVKEATQL [Q227K] | 0.131 | 0.125 | 0.18 | 0.127 | – | 0.101 | 0.102 | 0.0492 | 0.0911 | 0.129 | 0.105 | 0.102 | 0.0786 | 0.109 | 0.101 | 0.0957 | – | 0.128 | 0.112
7 | MGESLFKGPRDYNPISSSICHLTNESDGHTTSLYGIGFGPFIITNKHLFRRNNGTLVVQSLHGVFKVKDTTTLQQHLVDGRDMIIIRMPKDFPPFPQKLKFREPQREERICLVTTNFQTKSMSSMVSDTSCTFPSGDGIFWKHWIQTKDGQCGSPLVSTRDGFIVGIHSASNFTNTNNYFTSVPKNFMELLTNQEAQQWVSGWRLNADSVLWGGHKVFMVKPEEPFLPVKEATQL [Q227L] | 0.114 | 0.0994 | 0.124 | 0.115 | – | – | 0.0877 | 0.101 | 0.0903 | 0.0698 | 0.104 | 0.0854 | 0.102 | 0.079 | 0.13 | – | – | 0.136 | 0.106
8 | MGESLFKGPRDYNPISSSICHLTNESDGHTTSLYGIGFGPFIITNKHLFRRNNGTLVVQSLHGVFKVKDTTTLQQHLVDGRDMIIIRMPKDFPPFPQKLKFREPQREERICLVTTNFQTKSMSSMVSDTSCTFPSGDGIFWKHWIQTKDGQCGSPLVSTRDGFIVGIHSASNFTNTNNYFTSVPKNFMELLTNQEAQQWVSGWRLNADSVLWGGHKVFMVKPEEPFVPVKEATQL [Q227V] | 0.135 | 0.116 | 0.136 | 0.127 | – | – | 0.0684 | – | – | 0.099 | 0.122 | 0.133 | 0.11 | 0.123 | 0.0743 | 0.12 | – | 0.0815 | 0.117
9 | MGESLFKGPRDYNPISSSICHLTNESDGHTTSLYGIGFGPFIITNKHLFRRNNGTLVVQSLHGVFKVKDTTTLQQHLVDGRDMIIIRMPKDFPPFPQKLKFREPQREERICLVTTNFQTKSMSSMVSDTSCTFPSGDGIFWKHWIQTKDGQCGSPLVSTRDGFIVGIHSASNFTNTNNYFTSVPKNFMELLTNQEAQQWVSGWRLNADSVLWGGHKVFMVKPEEPFQPCKEATQL [V229C] | 0.113 | 0.106 | 0.132 | 0.0929 | – | 0.0882 | 0.0986 | 0.123 | – | 0.105 | 0.12 | – | 0.1 | – | 0.102 | – | 0.155 | 0.141 | –
